Measurements taken from patent publication US20100273740A1 (priority 2004, published 2010).

Assays:
[1] = system: Urbani strain of SARS CoV; type: cell-based; conditions: Vero cells
[2] = system: varicella zoster virus; experiment: microbe, parasite or virus in culture

SMILES	SI = Selectivity Index (IC50 Cell Growth divided by EC50) [1]	SI = Selectivity Index (IC50 Cell Growth divided by EC50) [2]	EC50 ([2]; Human alphaherpesvirus 3, Fibroblast, read-out: Effective Conc. (EC50) Against VZV)
CCCCCCCCCCCC(=O)NCC(COP(=O)([O-])OCC[N+](C)(C)C)OCCCC (stereo not drawn) [NHCOC11H23 OC3H6CH3 PC, 3-dodecanamido-2-butyloxypropyl-1-phosphocholine]	13	–	–
CCCCCCCCCCOC(CNC(=O)CCCCCCCCC)COP(=O)([O-])OCC[N+](C)(C)C (stereo not drawn) [NHCOC9H19 OC9H18CH3 PC, 3-decanamido-2-decyloxypropyl-1-phosphocholine]	–	156	0.48 µg/mL (≈ 0.872 µM)

In brackets after ≈: the same amount, converted by molar mass.
